The whole screen tested about 390,000 compounds, of which about 930 (0.24%) were called active. Inconclusive means that the source gave no clear call. Such entries were picked first, then a sample of the others. Calls follow the shape of the dose curve; as a rule, active = well fitted activation curve with a large enough effect; inconclusive = small, poorly fitted or top-dose-only effect; inactive = no such curve, though single readings can be large or run the other way. Where the call is inconclusive, the potency comes from a doubtful curve fit.
Assay: qHTS for Suppressors of FUS Proteinopathy: Primary screen using FUS-linked yeast assay; also: nearly all actives have a fitted effect of over 55% in size;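 as to growth rescue (activation): plate controls were DMSO vehicle for no effect and reference control for full effect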
Settings: S. cerevisiae FUS-expressing, OD600, 24 h; Potency: growth rescue; growth rescue (activation): at 76.6 µM (top of the series)
Method in brief: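 Quantitative HTS measuring growth restoration of FUS-toxic yeast. Galactose-induced cells (OD 0.005) were exposed 24hr at 30C to compounds at several concentrations, then absorbance at 600 nm was recorded.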
With `CCOC(=O)CCCCC(=O)c1[nH]c(=O)[nH]c1CSc1nc(-c2ccccc2)c(C#N)c(=O)[nH]1` the “growth rescue (activation)” value was inactive: 14.2%. In the case of `O=C1N[C@H](Cc2ccccc2)COC(=O)[C@H](Cc2ccc(F)cc2)C/C=C\C[C@H]1CC(=O)N(CCO)Cc1ccccc1`, the Potency is reported as inconclusive: 28.2 µM [activator, single point]. With `C#CCOCCOCCOCCNc1nc(N2CCN(C(=O)CCCCCCCCCCNC(=O)[C@H](CO)n3cc(CCCSC)nn3)CC2)nc(N2CCN(C(=O)CCCCCCCCCCNC(=O)[C@H](CCCN=C(N)N)n3cc(C[C@@H](C)CC)nn3)CC2)n1` the Potency was active: 8.91 µM. For `O=C(c1sc2ccccc2c1Cl)N(Cc1cccs1)C1CCS(=O)(=O)C1` (stereo unspecified), the Potency was inconclusive: 25.1 µM [activator, single point]. With `Cc1ccc(-c2c(C(=O)NCc3ccccc3)oc(=O)c3ccccc23)cc1` the “growth rescue (activation)” value was inactive: -7.74%. With `Cc1ccc(CCNC(=O)C2CCCN(C(=O)c3cc4sccc4n3C)C2)cc1` (stereo unspecified) the Potency was inconclusive: 12.6 µM [activator, partial curve, poor fit]. In the case of `COc1ccc(-c2nnc(SCC(=O)Oc3c(C)cccc3C)o2)cc1OC`, the “growth rescue (activation)” value is reported as inactive: -14%. With `COc1ccccc1CCC[C@@H](CCS(=O)(=O)C(C)C)CC1CCCCC1` the “growth rescue (activation)” value was inactive: 28.5%. With `O=c1c2ccccc2[nH]n1[C@@H](Cc1ccccc1)Cn1cc(-c2ccc(-c3ccccc3)cc2)nn1` the Potency was inconclusive: 3.16 µM [activator, partial curve, poor fit]. For `COc1cccc(C(c2sc3nc(C)nn3c2O)N2CCN(c3ccccc3F)CC2)c1` (stereo unspecified), the Potency was inconclusive: 15.8 µM [activator, partial curve]. In the case of `O=C(NNC(=O)c1cccc2ccccc12)c1ccc(F)cc1`, the Potency is reported as inconclusive: 11.2 µM [activator, single point]. With `C[C@H]1CN([C@@H](C)CO)C(=O)CCCn2cc(nn2)CO[C@@H]1CN(C)C(=O)Nc1ccc(C(F)(F)F)cc1` the “growth rescue (activation)” value was inactive: -0.81%. With `Cc1cc(C)cc(NC(=O)CN2C(=O)c3ccccc3Sc3ccc(C(=O)N4CCOCC4)cc32)c1` the Potency was inconclusive: 31.6 µM [activator, single point]. In the case of `C[C@@H]1CCCCO[C@H](CN(C)C(=O)Nc2ccc(F)cc2)[C@@H](C)CN([C@H](C)CO)C(=O)c2cc(NC(=O)c3ccccc3)ccc2O1`, the Potency is reported as inconclusive: 31.6 µM [activator, single point]. In the case of `COc1cc2c(c3oc(-c4ccccc4)cc(=O)c13)C=CC(C)(C)O2`, the Potency is reported as inconclusive: 35.5 µM [activator, single point]. For `Cc1cc(-c2csc(NC(=O)c3ccc(=O)n(C)n3)n2)c(C)n1CC1CCCO1` (stereo unspecified), the Potency was inconclusive: 8.91 µM [activator, partial curve, poor fit]. For `Cc1cccc(NC(=O)C2SC(=Nc3c(C)cccc3C)C(C(=O)N3CCOCC3)=C2N)c1` (stereo unspecified), the Potency was inconclusive: 35.5 µM [activator, partial curve]. In the case of `COc1ccc(OCCCn2c(=O)oc3ccc(C)cc32)cc1`, the “growth rescue (activation)” value is reported as inactive: 22%. For `CN(C)CCCN(C(=O)c1ccc(S(=O)(=O)N2CCc3ccccc3C2)cc1)c1nc2c(F)cc(F)cc2s1`, the Potency was inconclusive: 31.6 µM [activator, partial curve, poor fit]. In the case of `CN(Cc1ccccc1)C(=O)c1ccc(NC(=O)Cc2cccc(NC(=O)C3CCN(C(=O)C4CCCC4)CC3)c2)cc1`, the Potency is reported as inconclusive: 12.6 µM [activator, partial curve, poor fit]. With `CC(=O)c1c(C)nc(C)nc1NC(=O)Cc1ccccc1` the “growth rescue (activation)” value was inactive: 1.79%. In the case of `COc1cccc(/C=C2/C(=O)NN(c3ccc(C)c(C)c3)C2=O)c1`, the “growth rescue (activation)” value is reported as inactive: 23%. In the case of `CCc1ccccc1NC(=O)CN1C(=O)CCc2cc(S(=O)(=O)N3CCCCC3)ccc21`, the Potency is reported as inconclusive: 35.5 µM [activator, single point]. With `COc1ccc(N2CC(O)=C(c3nc4ccccc4s3)C2=N)cc1` the “growth rescue (activation)” value was inactive: 30.9%. With `CCNc1nc(Nc2ccc(C)c(Cl)c2)c2cnn(C)c2n1` the Potency was inconclusive: 39.8 µM [activator, single point]. With `OC(COc1cccc2ccccc12)CN1CCOCC1` (stereo unspecified) the “growth rescue (activation)” value was inactive: 10.6%. For `COc1ccc([C@@H]2[C@@H]3C(=O)N(C(C)(C)C)C(=O)[C@@H]3[C@]3(CC(C)C)C(=O)N(c4cccc(F)c4)C(=O)N23)cc1`, the Potency was inconclusive: 15.8 µM [activator, partial curve, poor fit]. For `Cc1ccc(-n2c3nc(=O)n(C)c(=O)c-3cc3c(Cl)cccc32)c(C)c1`, the “growth rescue (activation)” value was inactive: 0.623%. In the case of `Cc1ccc(/C(N)=N/OC(=O)N2CCOCC2)cc1`, the “growth rescue (activation)” value is reported as inactive: -3.77%. In the case of `CCCCN(Cc1ccccc1)C(=O)c1oc(=O)c2ccccc2c1-c1ccc(C)cc1`, the “growth rescue (activation)” value is reported as inactive: 26.1%. For `CCCCNC(=S)NNC(=O)C1=NN(c2cc(C)ccc2C)C(=O)CC1`, the Potency was inconclusive: 10 µM [activator, partial curve, poor fit]. In the case of `COc1ccc(-c2ccc(CN3C(CC(C)C)C(=O)N(Cc4cn(Cc5ccco5)nn4)CCS3(=O)=O)cc2)cc1` (stereo unspecified), the Potency is reported as inconclusive: 22.4 µM [activator, single point]. In the case of `Cn1nccc1C(=O)NCc1ccc2c(c1)CCN2C(=O)c1ccc(F)cc1`, the Potency is reported as inconclusive: 35.5 µM [activator, single point]. For `O=[N+]([O-])c1ccccc1S(=O)(=O)Nc1ccc(-c2ccc(N3CCOCC3)nn2)cc1`, the Potency was inconclusive: 50.1 µM [activator, single point]. With `COc1ccccc1Nc1cc(C(=O)NCCCN(C)c2ccccc2)c2ccccc2n1` the “growth rescue (activation)” value was inactive: 22.1%. With `CCN(Cc1ccc2c(c1)OCCO2)C(=O)CSc1nc(C)nc2sc(C)c(C)c12` the Potency was inconclusive: 35.5 µM [activator, single point]. For `Cc1ccc(C)c(NC(=O)c2ccccc2O)c1`, the Potency was inconclusive: 56.2 µM [activator, partial curve, poor fit]. For `O=C(O)CSc1nnc(Cc2ccccc2)n1-c1ccccc1`, the growth rescue (activation) was inconclusive: 67.1% [activator]. For `COc1ccc(NC(=O)Cc2ccc(Cl)cc2)cc1S(=O)(=O)N1CCCCC1`, the Potency was inconclusive: 22.4 µM [activator, single point]. In the case of `COc1ccc(S(=O)(=O)N(C)C[C@H]2OCCCC[C@@H](C)Oc3ccc(N(C)C)cc3C(=O)N([C@H](C)CO)C[C@@H]2C)cc1`, the “growth rescue (activation)” value is reported as inactive: 34.8%. For `Cc1ccc(SCCN2CCC(NC(=O)OCc3ccccc3)CCC2=O)cc1` (stereo unspecified), the Potency was inconclusive: 28.2 µM [activator, single point]. In the case of `O=C(Nc1cccc(S(=O)(=O)NC2=NCCC2)c1)c1cn(-c2ccccc2)nc1-c1ccc(F)cc1`, the Potency is reported as inconclusive: 17.8 µM [activator, single point]. In the case of `C=CCCC(=O)N[C@H]1CC[C@@]23CCCN2C(=O)CCC[C@H]3[C@H]1C`, the “growth rescue (activation)” value is reported as inactive: -10.4%. With `COc1ccc(OC)c(S(=O)(=O)NCCc2sc(-c3ccc(C)cc3)nc2C)c1` the Potency was inconclusive: 20 µM [activator, partial curve]. With `Cc1cccc2nc(-c3ccccc3)nc(N3CCC(O)(c4ccc(Cl)cc4)CC3)c12` the Potency was inconclusive: 17.8 µM [activator, partial curve, poor fit]. With `COCCN1C(=O)c2[nH]nc(-c3ccccc3O)c2C1c1ccc(OCc2ccccc2)c(OC)c1` (stereo unspecified) the Potency was inconclusive: 25.1 µM [activator, partial curve, poor fit]. In the case of `C=CCNC(=O)c1c(CSc2ccc(Cl)cc2)noc1C(=O)NCCC`, the Potency is reported as inconclusive: 28.2 µM [activator, partial curve, poor fit]. In the case of `c1cc2c3c(cccc3c1)NC1(CCC3(CC1)Nc1cccc4cccc(c14)N3)N2`, the Potency is reported as inconclusive: 10 µM [activator, full curve]. In the case of `C=CC[C@@H](Cc1ccc(F)cc1)C(=O)OC[C@H]1CCCN1C(=O)[C@H](CC=C)CC(=O)N[C@H](CO)Cc1ccccc1`, the Potency is reported as inconclusive: 28.2 µM [activator, single point]. With `O=C(CCl)Nc1ccccc1C(=O)c1ccccc1` the Potency was inconclusive: 0.794 µM [activator, full curve, poor fit]. In the case of `Oc1ccc(C[C@H]2CN([C@@H](Cc3ccccc3)CN3CCC[C@@H]3CN3C(=S)NC[C@@H]3Cc3ccccc3)C(=S)N2CC2CCCCC2)cc1`, the Potency is reported as inconclusive: 50.1 µM [activator, single point]. In the case of `Cc1ccc(Nc2cc(=O)n(C3CCCCC3)c(=O)[nH]2)cc1C`, the “growth rescue (activation)” value is reported as inactive: 2.44%. For `COC(=O)c1ccc(CC2(C)C(=O)Nc3ccc(-c4cccc(C(F)(F)F)c4)cc32)o1` (stereo unspecified), the Potency was inconclusive: 15.8 µM [activator, partial curve, poor fit]. With `O=C(Nc1nnc(SCc2ccc(F)cc2)s1)C1Cc2ccccc2CN1C(=O)c1ccco1` (stereo unspecified) the Potency was inconclusive: 10 µM [activator, partial curve]. For `Cc1ccc(-c2onc(C)c2C)cc1S(=O)(=O)NCc1ccco1`, the “growth rescue (activation)” value was inactive: 24.1%. In the case of `Cc1cc(O)c(NC(=S)NC(=O)c2ccc(-c3ccc(Cl)cc3)o2)cc1C`, the Potency is reported as inconclusive: 3.55 µM [activator, full curve, poor fit]. In the case of `CCCc1ccc(Oc2cc(C)nc(N3CCOCC3)n2)cc1`, the growth rescue (activation) is reported as inconclusive: 75.5% [activator]. For `Cc1ccc(C)c(S(=O)(=O)N2C(=S)NC(=O)C2CC(C)C)c1` (stereo unspecified), the “growth rescue (activation)” value was inactive: 4.53%. In the case of `CC1=CC(C)(C)Nc2ccc(OC(=O)CN3C(=O)c4cccc5cccc(c45)C3=O)cc21`, the Potency is reported as inconclusive: 11.2 µM [activator, partial curve]. With `COc1cc(C2C(C(=O)c3cc4ccccc4o3)=C(O)C(=O)N2CCN2CCOCC2)ccc1OCCC(C)C` (stereo unspecified) the Potency was active: 28.2 µM. For `CCOc1ccc(-n2cc(C(=O)Nc3cccc(OC)c3)c3cc(OC)c(OC)cc3c2=O)cc1`, the Potency was inconclusive: 35.5 µM [activator, single point].

Source: PubChem BioAssay AID1347120 (National Center for Advancing Translational Sciences (NCATS), 2019)
Potency is read from the fitted curve at half-maximal effect; tags tell the direction and shape of the fitted curve.
